Drawing on PubChem BioAssay AID1259407 (Chemical Carcinogenesis Research Information System (CCRIS), 2018), this text covers mutagenic call for 18 compounds.

For this data set, the system named is CCRIS mutagenicity, Ames/micronucleus/aberration tests. The experiment in a line: CCRIS mutagenicity studies.
[1] abbreviates: End Point: IN VITRO CHROMOSOMAL ABERRATIONS, Test System: CHL CELLS, Metabolic Activation: NONE.
The mark [2] stands for this setting: Test System: AMES SALMONELLA TYPHIMURIUM, Strain/Indicator: TA98, Metabolic Activation: RAT, LIVER, S-9, AROCLOR 1254, Method: STANDARD PLATE.
Setting [3] is: Test System: AMES SALMONELLA TYPHIMURIUM, Strain/Indicator: TA100, Metabolic Activation: NONE, Method: PREINCUBATION

“Also recorded” adds a separate entry of the source. The source holds more than one record for some entries. They are shown here; other results are not. How the calls were made is not given here. There may be further records. The values listed for one entry differ, and nothing given here explains why; some may be repeats, others may stem from another dose, organism or construct than stated. Marks in square brackets tell the records apart. The letters are not those of the source and start again with each entry. Counts like (3×) say how often a value occurs here.

As to `CC(C)(Oc1ccc(C2CC2(Cl)Cl)cc1)C(=O)O` (centres undefined), the mutagenic call by setting is: (End Point: IN VITRO CHROMOSOMAL ABERRATIONS, Test System: RAT HEPATOCYTES, Metabolic Activation: NONE) “active; positive; dose dependent effect and active; positive”; (End Point: IN VITRO MICRONUCLEUS, Test System: RAT HEPATOCYTES, Metabolic Activation: NONE) “active; positive; significant at top dose only; also recorded: active; positive”. As to `CNc1ccc(O)cc1`, the mutagenic call (Test System: AMES SALMONELLA TYPHIMURIUM, Strain/Indicator: TA100, Metabolic Activation: HAMSTER, LIVER, S-9, AROCLOR 1254 (10%), Method: PREINCUBATION) is “inactive; negative [10 to 1000 µg/plate] and active; positive [10 to 2000 µg/plate]”.

With `Nc1ccc([N+](=O)[O-])cc1N`, under setting [1], the mutagenic call is listed as “active; positive (structural changes); also recorded: active; positive (structural changes); precipitation occurred at 1.5 mg/ml”.

On to `CC(N)c1ccccc1.CC(N)c1ccccc1.[Cl][Pt][Cl]` (centres undefined), for which the mutagenic call (Test System: AMES SALMONELLA TYPHIMURIUM, Strain/Indicator: TA92, Metabolic Activation: NONE, Method: STANDARD PLATE) is “active; positive and inactive; negative”. As to `CC(Br)CBr` (centres undefined), the mutagenic call (Test System: AMES SALMONELLA TYPHIMURIUM, Strain/Indicator: TA1535, Metabolic Activation: RAT LIVER S-9, PHENOBARBITAL AND BETA-NAPHTHOFLAVONE, Method: PREINCUBATION) is “inactive; negative and active; positive”.

Turning to `CC(=O)OC/C=C(C)/C=C/C=C(C)/C=C/C1=C(C)CCCC1(C)C`, where the note is “End Point: IN VITRO MICRONUCLEUS, Test System: V79 CELLS, Metabolic Activation: NONE”, the mutagenic call was “inactive; negative and active; positive”.

As for `O=NN1CN2CN(C1)CN(N=O)C2`, the mutagenic call under setting [1] is “inactive; negative; authors report equivocal results for structural changes at 0.05 mg/ml; also recorded: active; positive (structural and ploidy changes)”. Consider `O=C(ON=C1C=CC(=NOC(=O)c2ccccc2)C=C1)c1ccccc1`, for which the mutagenic call under setting [1] is “active; positive (structural changes); also recorded: inactive; negative; also recorded: active; positive (structural changes); authors report equivocal results for ploidy at hi”.

Take `O[C@@H]1C=Cc2c(ccc3c2ccc2ccccc23)[C@H]1O`: under setting [2], the mutagenic call was “inactive; negative [study A] and active; positive [study B]”. For `ClC(Cl)C(Cl)(Cl)Cl`, the mutagenic call (End Point: IN VITRO CHROMOSOMAL ABERRATIONS, Test System: CHINESE HAMSTER LUNG FIBROBLAST CELLS (CHL/IU), Metabolic Activation: NONE) was “active; positive (ploidy); authors report a weakly positive response for structural aber; also recorded: inactive; negative; authors report a weakly positive response for ploidy; also recorded: inactive; negative; authors report a weakly positive response for both structural changes”. `c1ccc(NNc2ccccc2)cc1`: the mutagenic call by setting is: under setting [2], “inactive; negative (2×) and active; positive”; (Test System: AMES SALMONELLA TYPHIMURIUM, Strain/Indicator: TA1535, Metabolic Activation: MOUSE, LIVER, S-9, AROCLOR 1254, Method: STANDARD PLATE) “inactive; negative (2×) and active; positive”. With `c1ccc2cc3ccccc3cc2c1`, the mutagenic call is, setting by setting: (End Point: In vitro chromosomal aberrations, Test System: Chinese hamster lung (CHL/IU) cells, Metabolic Activation: None) “active; positive (structural changes and ploidy). precipitation in the culture medium at; also recorded: inactive; negative. precipitation in the culture medium at all doses (2×)”; under setting [3], “inactive; negative [study A] and active; positive [study B]”; (Test System: Ames Salmonella typhimurium, Strain/Indicator: TA1535, Metabolic Activation: Rat, Liver, S9, Phenobarbital and 5,6-benzoflavone (10%), Method: Preincubation) “inactive; negative. precipitate at three highest doses; also recorded: inactive; negative. precipitate at 313, 625 and 1,250 mg/ml; also recorded: inactive; negative. precipitation at 3 highest doses”; (Test System: Ames Salmonella typhimurium, Strain/Indicator: TA1535, Metabolic Activation: Rat, Liver, S9, Phenobarbital and 5,6-benzoflavone (30%), Method: Preincubation) “inactive; negative. precipitate at three highest doses; also recorded: inactive; negative. precipitate at 313, 625 and 1,250 mg/ml; also recorded: inactive; negative. precipitation at 3 highest doses”. Regarding `CCCCB(CCCC)CCCC`, the mutagenic call reads like this: (Test System: AMES SALMONELLA TYPHIMURIUM, Strain/Indicator: TA98, Metabolic Activation: NONE, Method: STANDARD PLATE) “active; positive and inactive; negative”; (Test System: AMES SALMONELLA TYPHIMURIUM, Strain/Indicator: TA100, Metabolic Activation: NONE, Method: STANDARD PLATE) “inactive; negative and active; positive”; (Test System: AMES SALMONELLA TYPHIMURIUM, Strain/Indicator: TA100, Metabolic Activation: RAT, LIVER, S-9, AROCLOR 1254, Method: STANDARD PLATE) “inactive; negative and active; positive”.

For the compound `C=CCc1ccc2c(c1)OCO2`, the mutagenic call (Test System: MOUSE LYMPHOMA, Strain/Indicator: L5178Y (TK+/TK-), Metabolic Activation: RAT, LIVER, S-9, AROCLOR 1254, Method: SUSPENSION/PLATE) was “active; positive [study A] and inactive; negative [study B]”. On to `CCCSP(=O)(OCC)SCCC`, for which the mutagenic call (End Point: In vitro chromosomal aberrations, Test System: Chinese hamster ovary (CHO) cells, Metabolic Activation: Rat, Liver, S-9) was “active; positive (all doses) and active; positive (high dose only)”. Consider `O=[N+]([O-])C(Br)(Br)Br`, for which the mutagenic call runs as follows: (Test System: AMES SALMONELLA TYPHIMURIUM, Strain/Indicator: TA98, Metabolic Activation: HAMSTER, LIVER, S-9, AROCLOR 1254 (30%), Method: PREINCUBATION) “active; positive and inactive; negative”; (Test System: AMES SALMONELLA TYPHIMURIUM, Strain/Indicator: TA98, Metabolic Activation: RAT, LIVER, S-9, AROCLOR 1254 (30%), Method: PREINCUBATION) “active; positive and inactive; negative”; (Test System: AMES SALMONELLA TYPHIMURIUM, Strain/Indicator: TA100, Metabolic Activation: RAT, LIVER, S-9, AROCLOR 1254 (30%), Method: PREINCUBATION) “active; positive and inactive; negative”.

As for `NN`, the mutagenic call reads like this: (Test System: AMES SALMONELLA TYPHIMURIUM, Strain/Indicator: TA98, Metabolic Activation: NONE, Method: PREINCUBATION) “inactive; negative and active; positive”; under setting [3], “inactive; negative and active; positive”. Turning to `C/C=C/C=O`, the mutagenic call was “active; positive (structural and ploidy changes); also recorded: active; positive (structural changes)” under setting [1]; “inactive; negative and active; positive” (Test System: AMES SALMONELLA TYPHIMURIUM, Strain/Indicator: TA1537, Metabolic Activation: NONE, Method: PREINCUBATION).
